Hit rate of the full screen: of about 48,000 compounds, about 120 (0.25%) were called active. Not shown: some 4% with an inconclusive outcome. Calls come from the whole dose curve; as a rule, active = well fitted activation curve with a large enough effect; inconclusive = small, poorly fitted or top-dose-only effect, or another doubt; inactive = no such curve, though single readings can be large or run the other way. The list shows a part of the results.
Assay: Primary qHTS for Identification of Small Molecule Activators of Huntingtin-Antisense Promoter Activity; note: nearly all actives have a fitted effect of over 55% in size
Conditions: HEK293 HTT-AS promoter firefly luciferase reporter (activity 0% = vehicle and -100% = no light), 24 h; series mostly up to 57.5 µM; activity change, positive = activation: at the top concentration
Procedure, shortened: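 Firefly luciferase readout (Dual-Glo, 10 min RT) after 24 h, 37 °C compound exposure (final up to 57.5 uM) of HEK293 reporter cells cultured 24 h beforehand; PTC124 at 50 uM final as control inhibitor; activity scaled vehicle 0%, zero RLU -100%.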

Activity change, positive = activation, inactive:
Cc1cc(Cl)ccc1NC(=O)c1cccc(NC(=O)N2CCSc3ncccc32)c1 -14.8%
Cc1ccc(C(=O)CC2(O)C(=O)N(CCc3ccccc3)c3ccc(Br)cc32)cc1 (stereo unspecified) -38.9%
CCc1cccc(NC(=O)CN2C(=O)COc3ccc(S(=O)(=O)N4CCC(C)CC4)cc32)c1 -20.4%
CC(=O)Nc1ccc(S(=O)(=O)NC2(C(F)(F)F)C(=O)Nc3c2c(=O)[nH]c(=O)n3-c2ccc(C)cc2)cc1 (stereo unspecified) 3.3%
CCOCCCNC(=O)C(c1ccc(OC)cc1)N(Cc1cccs1)C(=O)CNC(C)=O (stereo unspecified) -7.75%
CCOC(=O)c1cc2c(=O)n3ccccc3nc2n(CCCOC)c1=NC(=O)c1cc2ccccc2o1 13.6%
COc1ccc(NC(=O)Cn2c(=O)n(Cc3ccccc3Cl)c(=O)c3cc(OC)c(OC)cc32)cc1 -5.7%
Cc1ccc(Cn2c(C)c3cnn(CC(=O)N4CCN(c5cc(C)ccc5C)CC4)c(=O)c3c2C)cc1 -50.8%
O=c1oc2ccc(Cl)cc2cc1-c1nc(-c2cccs2)no1 -7.49%
COc1ccc(NC(=O)Cn2c(=O)n(Cc3ccco3)c(=O)c3sc4ccccc4c32)cc1Cl -31.6%
Cc1ccc(N2CCn3c2nc2c3c(=O)n(Cc3cccc(Cl)c3)c(=O)n2C)cc1C -5.89%
CC(C)c1ccc(NC(=O)CN2C(=O)C3(SCC(=O)N3c3ccc(F)cc3)c3ccccc32)cc1 (stereo unspecified) -27.5%
O=c1c(-c2ccc(O)cc2)coc2cc(OC3O[C@H](CO)[C@H](O)[C@H](O)[C@H]3O)cc(O)c12 (stereo partly specified) 3.98%
O=C(Nc1ccc(Cl)cc1)c1ccc2c(c1)N(Cc1ccccc1)CCS2 1.76%
CCN(C(=O)CSc1nc2ccccc2nc1Cc1ccccc1OC)c1ccccc1 -7.75%
O=C(CN1C(=O)CCSc2ccc(S(=O)(=O)N3CCCC3)cc21)Nc1ccccc1Cl -1.5%
CCCC12CN3CC(CCC)(CN(C1)C3c1c[nH]c3ccc(OC)cc13)C2=O (stereo unspecified) 4.54%
CCCOc1ccc(CC2C(=O)Nc3ccc(Br)cc32)cc1 (stereo unspecified) -16.8%
Cc1nc(CC(=O)Nc2ccc(C(N)=O)cc2)cs1 -7.51%
CCSC1=NC2(CCN(C(=O)NC3CCCCC3)CC2)N=C1c1ccc(OC)cc1 -28%
CCOc1ccccc1CNC(=O)CCc1cn(C)c2ccccc12 -28%
CC(C(=O)NCc1ccccc1)n1ccc2cc(S(=O)(=O)N3CCCC3)ccc21 (stereo unspecified) -15.8%
CC(C)c1ccc(NC(=O)CSC2=Nc3ccccc3C3=NC(CCC(=O)NCc4cccs4)C(=O)N23)cc1 (stereo unspecified) -33.5%
CCOc1ccc(NC(=O)c2nn(C)c3c2COc2ccccc2-3)cc1 7.5%
COc1ccc2c(c1)c1c(c(=O)n(-c3cc(Cl)ccc3C)c(=O)n1Cc1ccc(F)cc1)n2C -19.1%
Cc1c(Cl)cccc1-n1ncc(C(=O)NC2CCCC2)c1C1CCN(C(=O)OC(C)(C)C)CC1 -3.84%
Cc1ccc(NC(=O)N2CCN3CCCCC3C2)cc1C (stereo unspecified) 10.5%
CCSc1ncc(Cl)c(C(=O)Nc2cc(C)ccc2C)n1 -1.44%
CC(=O)c1c(C)n(-c2cccc(Cl)c2)c2ccc(OC(=O)c3ccccc3)cc12 -8.13%
CCCOC(=O)c1c(-c2ccccc2)c(-c2ccccc2)nn(C)c1=O 18.8%
Cc1cc(C)c(-c2n[nH]c3c2C(c2ccccc2F)N(CCO)C3=O)c(O)c1 (stereo unspecified) -34.9%
COc1ccc(-c2[nH]c(-c3ccc(C)cc3)nc2SCC(=O)NCC2CCCO2)cc1 (stereo unspecified) -17.8%
COc1cccc(NC(=O)CSc2nc(=O)[nH]c3c2CCCC3)c1 -23.8%
CC1=NS(=O)(=O)c2cc(Cl)ccc2N1 0.145%
COC(=O)c1c(NC(=O)CS(=O)(=O)c2ccc(C)cc2)sc2c1CCCCC2 -23.4%
CCOc1cc2[nH]c(=O)n(CCC(=O)N3CCN(c4ccccc4)CC3)c(=O)c2cc1OCC -9.21%
Cc1ccc(-n2nc3c(N4CCCC(C(=O)NCc5ccccc5C)C4)nnc(C)c3c2C)cc1 (stereo unspecified) -7.95%
Cn1c(=O)n(C)c2cc(CNCc3ccccc3Cl)ccc21 -2.13%
COc1cccc(C(=O)NCc2cn3cccc(C)c3n2)c1 -3.38%
CCCn1c(=N)c(C(=O)NC(C)c2ccccc2)cc2c(=O)n3ccccc3nc21 (stereo unspecified) -10.9%
O=C(c1ccc(Cl)cc1)n1nc(-c2ccccc2)nc1NCc1ccco1 7.83%
CCOC(=O)Cc1ccc(NC(=O)Nc2nnc(N3CCCCC3C)s2)cc1 (stereo unspecified) -38.4%
COC1=C(OC)C(=O)C(CC=C(C)CCC=C(C)CCC=C(C)CCC=C(C)CCC=C(C)CCC=C(C)CCC=C(C)CCC=C(C)CCC=C(C)CCC=C(C)C)=C(C)C1=O 0.537%
COC(=O)c1ccc(NC(=O)c2c(-c3ccccc3)c(-c3ccccc3)nn(C)c2=O)cc1 -1.41%
O=C(Nc1ccc2c(c1)CCCN2C(=O)c1cccs1)c1ccccc1C(F)(F)F -17.6%
CCCN(C(=O)c1cc2c(s1)-c1ccccc1OC2)c1ccc(C(C)C)cc1 -11.8%
Cc1cccc(OC(=O)c2snnc2C)c1C -16.4%
CCC(=O)N1CCc2cc(Br)cc(S(=O)(=O)NCCc3ccc(C)cc3)c21 -30.8%
CCc1ccc(Nc2nc(-c3cc4cccc(OC)c4oc3=O)c(CC)s2)cc1 11%
CCOC(=O)c1ccc(NC(=O)Nc2cc3c(cc2N2CCCCC2)n(CC)c(=O)n3CC)cc1 -30.1%
COc1ccc(Br)cc1CNCc1c(C(=O)O)c(C)n(Cc2ccccc2C)c1C -25.2%
Cc1nc2cccnc2n1-c1cccc(C(=O)NCc2cccc(Cl)c2)c1 -35.4%
CCOc1ccc(-c2cc3nc(C4CCN(C(=O)OC(C)(C)C)CC4)c(C(=O)Nc4cccc(C(F)(F)F)c4)cn3n2)cc1 -11%
c1ccc2c(c1)CCc1ccccc1N2 11.5%
Cc1cc2c(cc1S(=O)(=O)CCC(=O)N1CCN(c3ccccc3)CC1)OCC(=O)N2 -20.6%
CCS(=O)(=O)N1CC(=O)N(c2cc(Cl)ccc2C)C(C)(C(=O)NC2CCCCCC2)C1 (stereo unspecified) -8.41%
CCCCCOC(=O)CSc1nc2sc3c(c2c(=O)n1Cc1ccccc1)CC(C)(CC)OC3 (stereo unspecified) -14.5%
CN1C(=O)C[C@H](C(=O)N[C@@H](Cc2cnc[nH]2)C(=O)N2CCC[C@@H]2C(N)=O)NC1=O -7.73%
COc1ccc(-c2nc3scc(CCNS(=O)(=O)c4cccs4)n3n2)cc1 -28.6%
COc1cccc(C(=O)NC2=NC(c3ccccc3F)CC(=O)N2)c1 (stereo unspecified) -13.3%
COc1cc(Cl)c(NS(=O)(=O)c2cc3[nH]c(=O)c(=O)[nH]c3cc2C)c(OC)c1 1.69%
Cc1ccc(-n2c(=O)c3c4c(sc3n(CC(=O)C(C)(C)C)c2=O)CCCCC4)cc1C -16.5%
CCc1ccc(-n2c(=O)c3sc4ccccc4c3n(CC(=O)NC3CCCC3)c2=O)cc1 -2.14%
COc1cc(OC)c(NC(=O)CCc2nc(C3=CCN(Cc4cccc(Cl)c4)CC3)no2)cc1Cl 16.4%
Nc1nc(N)c(S(=O)(=O)c2ccccc2)c(Nc2ccccc2)n1 -18.7%
COc1cccc(C2C(=O)N(C3CCCCC3)CC(=O)N2CCc2ccc(OC)c(OC)c2)c1 (stereo unspecified) -9.81%
CCc1ccc2c(c1)c(=O)c(S(=O)(=O)c1ccc(F)cc1)cn2CC(=O)Nc1ccccc1OC -18.3%
COc1ccc(-c2cc(C(=O)Oc3ccc(Br)cc3)c3ccccc3n2)cc1 16.5%
Cc1ccc(NC(=O)c2oc3ccccc3c2NC(=O)C2CCCCC2)cc1 3.9%
CCOC(=O)C1CCN(C(=O)c2ccc(C)c(NC(=O)c3nsc4ccccc34)c2)CC1 -12.5%
CCC(=O)N1c2ccc(S(=O)(=O)CCC(=O)NCc3ccc(OC)cc3)cc2CC1C (stereo unspecified) -24.7%
CCc1cccc(C)c1Nc1c(-c2cccs2)nc2ncccn12 -17.6%
O=S(=O)(Nc1ccc(OC(F)(F)F)cc1)c1ccc(N2CCCCS2(=O)=O)cc1 -18.7%
Cc1cc(C)c(NC(=O)CCN2CCCCC2)c(C)c1 0.128%
COc1ccc(NC(=O)COCc2cc(-c3ccco3)on2)cc1Cl -13.3%
O=C(Nc1ccc(F)c(F)c1)c1ccc(=O)n(Cc2ccc(F)cc2)c1 -18%
CC1=C(C(=O)Nc2cc(C)cc(C)c2)C2(CCCCC2)OC1=O -14.3%
CC(C)c1ccc(S(=O)(=O)NCc2nc3cccnc3n2Cc2ccc(F)cc2)cc1 -25.5%
Cc1cccc2c1-c1sc(C(=O)NCc3ccccc3Cl)cc1CO2 -14.4%
CCC(=O)N1CCc2cc(Br)cc(S(=O)(=O)CCC(=O)NCc3ccccc3)c21 13%
COc1cccc(NC(=O)c2cc(CN3CCOCC3)on2)c1 29.2%
COc1ccccc1CNC(=O)c1c2c(nc3ccccc13)C(=O)N(C1CCCCC1)C2 -18.8%
CCCCCCCCCCCCCCCC[N+](C)(C)Cc1ccccc1 -27.9%
CSc1cccc(NC(=O)CN(C)S(=O)(=O)c2ccc3c(c2)n(C)c(=O)c(=O)n3C)c1 2.74%
Cc1nn2c(=O)cc(COC(=O)c3ccc(C(C)(C)C)cc3)nc2s1 -5.6%
O=c1ccc2cc(S(=O)(=O)N3CCCC3)ccc2[nH]1 -13.8%
Fc1ccc(CNc2nc3c(-c4ccc(F)cc4)nnn3c3ccccc23)cc1 -1.23%
Cc1ccc(NC(=O)NCCc2c(C)nn(C)c2C)c(Cl)c1 1.94%
COc1cc(C(=O)NCc2ccc3c(c2)CCN3C(=O)c2ccncc2)cc(OC)c1OC 17.1%
COc1cccc(/C=C/c2nc(C#N)c(N(C)Cc3ccccc3)o2)c1 -16.3%
COc1ccc(-c2noc(CSCC(=O)Nc3ccc(C)cc3Br)n2)cc1OC -22.1%
COCCCNC(=O)CN1C(=O)c2c(c3ccccc3n2C)C1c1ccc(OC)cc1 (stereo unspecified) -5.9%
CCCCSc1ncnc2c1sc1nc(N3CCOCC3)c3c(c12)CCCC3 -14.9%
CCOc1ccc(CNC(=O)COc2cc(=O)n(C)c3ccccc23)cc1 -2.66%
CC1=C(C(=O)Nc2ccc(C)cc2)C(c2ccccc2Cl)n2nnnc2N1 (stereo unspecified) -8.79%
Cc1ccc(Cn2c(C)c(CNC3CCCCC3)c(C(=O)O)c2C)cc1 -14.2%

— PubChem BioAssay AID1508624 (National Center for Advancing Translational Sciences (NCATS), 2021)
